Publication PMC6919601, “Identification of Plasmodium dipeptidyl aminopeptidase allosteric inhibitors by high throughput screening” (PLoS ONE, 2019)
About 230 (0.21%) of roughly 110,000 compounds showed an effect of 50% or more. Some of the results follow.

Target: DPAP1 (Plasmodium falciparum, UniProt Q8IIJ9)
Assay: primary screen, percent inhibition; read by cleavage of a fluorogenic dipeptide substrate; higher = more effect of the substance
Parameters: species or system P. falciparum D10 trophozoite lysates; single well
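Further: 30 min substrate incubation versus DMSO and 10 µM JCP410 controls.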

Chain of DPAP1 (Q8IIJ9 whole entry, looked up): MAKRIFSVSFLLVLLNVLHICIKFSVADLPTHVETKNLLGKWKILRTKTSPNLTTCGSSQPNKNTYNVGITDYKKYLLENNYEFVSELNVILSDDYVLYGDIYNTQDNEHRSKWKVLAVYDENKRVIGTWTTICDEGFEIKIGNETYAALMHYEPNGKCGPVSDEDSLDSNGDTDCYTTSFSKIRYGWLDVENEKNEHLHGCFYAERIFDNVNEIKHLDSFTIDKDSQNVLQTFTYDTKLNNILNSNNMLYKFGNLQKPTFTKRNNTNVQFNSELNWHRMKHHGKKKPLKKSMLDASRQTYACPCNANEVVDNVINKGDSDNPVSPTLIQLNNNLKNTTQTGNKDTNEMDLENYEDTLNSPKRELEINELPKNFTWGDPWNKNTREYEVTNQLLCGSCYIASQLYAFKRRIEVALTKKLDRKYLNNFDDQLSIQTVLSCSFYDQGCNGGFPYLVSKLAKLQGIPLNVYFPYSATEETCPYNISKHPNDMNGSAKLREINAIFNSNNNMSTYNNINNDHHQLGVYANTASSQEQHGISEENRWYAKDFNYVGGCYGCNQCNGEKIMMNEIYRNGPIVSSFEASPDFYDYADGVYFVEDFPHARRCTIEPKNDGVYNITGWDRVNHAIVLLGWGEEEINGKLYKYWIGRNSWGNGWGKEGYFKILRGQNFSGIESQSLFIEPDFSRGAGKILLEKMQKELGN

| Structure (SMILES) | % Inhibition @ 10 uM |
| --- | --- |
| COc1ccc(/C=N/n2c(S)nnc2C(F)(F)F)cc1O | -3.04% |
| O=C(c1ccc(NS(=O)(=O)c2cccc(F)c2)cc1)N1CCCC1 | 4.42% |
| CCN(CC)CCSCCOC(=O)c1oc2ccccc2c1C | 4.01% |
| Clc1cccc(CN2CCc3c([nH]c4ccccc34)C2)c1Cl | -3.13% |
| C/C(O)=C\c1nc2ccccc2nc1O | 5.48% |
| COc1cccc(/C(O)=C/C=N/c2ccccc2OC)c1 | 2.44% |
| Cc1ccc(NS(=O)(=O)c2ccc(F)cc2)c(NS(=O)(=O)c2ccc(F)cc2)c1 | 0.331% |
| Cc1ccnc(N2C(=O)c3ccc(C(=O)O)cc3C2=O)c1 | -0.173% |
| C=CCNc1oc(Cc2cccc3ccccc23)nc1C#N | 5.18% |
| CC(C)NC(=O)N1CCN(c2ccncc2S(=O)(=O)N2CCOCC2)CC1 | -1.51% |
| O=C(CN1C(=O)c2ccccc2S1(=O)=O)NCC1CCCO1 (centres unmarked) | -6.49% |
| C=CCSc1nc(N)c(C#N)c(CC)c1C#N | 65.5% |
| CC(=O)N(c1ccc2oc3c(c2c1)CCCC3)S(=O)(=O)c1ccc(C)cc1 | -7.69% |
| O=S(=O)(c1cccc(C(F)(F)F)c1)N1CCC(N2CCCCC2)CC1 | 1% |
| Cc1nn(C)c(C)c1CN(C)C(=O)c1cc2nc(-c3ccccc3)cc(C(F)(F)F)n2n1 | 1.02% |
| O=C(Nc1nc2ccccc2[nH]1)c1ccccc1F | 2.85% |
| CCC(C)[C@H](NC(=O)c1cccc(CN)c1)C(=O)N[C@@H](CCc1ccccc1)C(=O)CNS(=O)(=O)c1ccc2oc3ccccc3c2c1 (some centres unmarked) | 7.72% |
| CCOc1ccccc1N1CCN(Cc2ccc(OC)c(Br)c2)CC1 | -6.36% |
| O=C(Nc1ccc(Br)cc1C(=O)O)c1ccc(N2C(=O)c3ccccc3C2=O)cc1 | 8.26% |
| COC(=O)C1=C(C)N(C)C(C)=C(C(=O)OC)C1c1ccc(OCc2ccccc2)cc1 | 6.12% |
| C=C(C)CNC(=S)Nc1ccccc1 | -1.05% |
| N#Cc1c(-c2cccs2)cc(-c2cccnc2)nc1N | -1.33% |

| Structure (SMILES) | % Inhibition @ 10 uM |
| --- | --- |
| COc1cc(C2Nc3cccc4cccc(c34)N2)cc(OC)c1O | -1.37% |
| Cn1c(=O)cc2c3c(c(N)ccc31)C(=O)c1ccccc1-2 | -8.01% |
| Cc1cc(C)c(OCC(=O)N(Cc2ccccc2)C2CCS(=O)(=O)C2)c(C)c1 (centres unmarked) | 0.812% |
| CC1CCc2c(sc(NC(=O)C(C)Oc3ccccc3)c2C(N)=O)C1 (centres unmarked) | -12.4% |
| CCOc1ccc(C2C3=C(O)CCCC3=Nc3nc4ccccc4n32)cc1OC (centres unmarked) | -1.62% |
| COc1cccc(/C=C/c2nc(C#N)c(NCCCN(C)C)o2)c1 | 0.685% |
| Cc1ccc(N2CCN(Cc3coc4c(Cl)cc(Cl)cc4c3=O)CC2)cc1 | -0.0648% |
| CN1CCN(C(=O)c2cnn3c(C(F)(F)F)cc(-c4ccc(Br)cc4)nc23)CC1 | -2.16% |
| COc1ccc(C(=O)CSc2nc(N)cc(O)n2)cc1C | -1.6% |
| Cn1c(NCCCO)nc2c1c(=O)n(Cc1ccccc1F)c(=O)n2C | 0.279% |
| COc1ccc(-c2cc(-c3ccc(C)cc3)nc(N3CCOCC3)n2)cc1 | 1.04% |
| Cc1cc(O)c2ccc(Cl)cc2n1 | 8.97% |
| COc1ccc(CC(=O)Nc2sc3c(c2C(N)=O)CCCCC3)cc1OC | 57% |
| c1ccc(-c2ncnc(-c3ccccc3)n2)cc1 | 18.3% |
| CCCCOc1ccc(C2C(C#N)=C(N)Oc3[nH]nc(CCC)c32)cc1OC (centres unmarked) | -0.988% |
| Cn1c(=O)c2ncn(CC(=O)Nc3cc(C(F)(F)F)ccc3N3CCOCC3)c2n(C)c1=O | -1.43% |
| O=C(O)c1ccc(-c2nc3cc(Cl)c(Cl)cc3[nH]2)cc1 | -9.31% |
| Nc1cccc(C(=O)Nc2cccc(S(=O)(=O)CCO)c2)c1 | -6.21% |
| O=C(C#Cc1ccccc1)C#Cc1ccccc1 | -8.2% |
| Cc1ccc2c(CNCc3ccc(OC(C)C)cc3)c(C(=O)O)n(Cc3ccc(F)cc3)c2c1 | 1.53% |
| COc1ccc(C(=O)c2cc(OC)c(OC)cc2C(=O)O)cc1OC | 4.98% |
| CCc1nc2sc3c(c2c2nnnn12)CCCC3 | -2.59% |

| Structure (SMILES) | % Inhibition @ 10 uM |
| --- | --- |
| O=C(/C=C/c1ccco1)NC(=S)N1CCCCCC1 | -3.48% |
| CC(C)(C)c1ccc(C(=O)NCCCNC2=NS(=O)(=O)c3ccccc32)cc1 | 0.146% |
| N#CCCN(C(=O)Nc1ccccc1)c1ccccc1 | 5.63% |
| CCCC[C@@H](/C=C/S(=O)(=O)c1ccccc1)NC(=O)[C@@H](N)Cc1cc(I)c(O)c(I)c1 | 1.7% |
| Cc1cc(O)c(C2=NCCSC(c3cc(Cl)cc(Cl)c3O)C2)c(=O)o1 (centres unmarked) | -0.0372% |
| Cc1ccc(NC(=O)CN2CCN(CC#N)CC2)cc1 | 3.29% |
| CCOC(=O)c1c(C)[nH]c(C)c1S(=O)(=O)NCC(=O)N1CCN(C)CC1 | 4.39% |
| CCOP(=S)(OCC)C(O)c1ccccc1 (centres unmarked) | -1.82% |
| Cc1nc2c(c(C)nn2C(C)(C)C)c(C)c1CCC(=O)O | 2.39% |
| CCCN1CCC(N(C)CCc2ccccc2)CC1 | 0.472% |
| COc1ccc(Br)cc1CNC(=O)c1c(C)nc2ccccn2c1=O | 0.0882% |
| Cc1cc(-c2ccccc2)c2nncn2n1 | 3.36% |
| Cc1sc2ncn(CC(=O)NCCCN3CCOCC3)c(=O)c2c1S(=O)(=O)N1CCOCC1 | 2.84% |
| O=C(O)c1c(CNCCN2CCOCC2)c2ccccc2n1Cc1ccc(F)cc1Cl | -6.95% |
| CCc1ccc(C2c3c(oc4ccc(F)cc4c3=O)C(=O)N2c2nc(C)c(C)s2)cc1 (centres unmarked) | 2.1% |
| Nc1nn(-c2ccccc2)nc1C(=O)OCc1cc2c(cc1Br)OCO2 | -5.53% |
| C=CCN1C(=O)NC2(O)C(=O)c3ccccc3C12O (centres unmarked) | 0.121% |
| CCN1C(=O)S/C(=C/c2c(OC)cc(OC)cc2OC)C1=O | -1.22% |
| CCOc1ccccc1CNC(=O)c1cc2oc3ccccc3c2n1C | -1.6% |
| Cc1cccc(NCc2nc3ccccc3n2C)c1 | -6.88% |
| O=C(C1CCN(c2ncnc3c2sc2cccc(F)c23)CC1)N1CCCC1 | -3.57% |
